From the supplement of paper PMC3334620
Whole data set: some 33,000 sequences, median “E-score (-0.5 to 0.5)” near -0.012, cut for the highest 2% near 0.27. This is one part of the list.

Biological target: T1, Vhr1 (UniProt P40522)
T1 sequence: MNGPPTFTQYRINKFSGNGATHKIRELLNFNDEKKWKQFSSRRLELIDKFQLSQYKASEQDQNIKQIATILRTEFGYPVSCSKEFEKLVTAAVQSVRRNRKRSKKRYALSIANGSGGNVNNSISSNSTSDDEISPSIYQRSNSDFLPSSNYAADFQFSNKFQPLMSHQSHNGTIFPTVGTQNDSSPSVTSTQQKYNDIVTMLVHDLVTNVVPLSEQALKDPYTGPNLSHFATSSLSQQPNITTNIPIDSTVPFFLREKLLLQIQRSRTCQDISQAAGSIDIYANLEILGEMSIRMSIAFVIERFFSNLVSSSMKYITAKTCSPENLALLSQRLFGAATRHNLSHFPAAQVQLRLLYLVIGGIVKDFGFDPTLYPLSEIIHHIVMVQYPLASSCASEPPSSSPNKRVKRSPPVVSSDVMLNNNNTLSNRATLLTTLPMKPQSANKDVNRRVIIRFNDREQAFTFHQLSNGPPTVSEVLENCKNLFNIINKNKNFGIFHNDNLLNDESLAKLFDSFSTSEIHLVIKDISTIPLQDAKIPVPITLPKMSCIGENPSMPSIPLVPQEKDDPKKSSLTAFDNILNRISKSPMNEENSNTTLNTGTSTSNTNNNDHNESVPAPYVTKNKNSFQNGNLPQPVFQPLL
Test: PBM E-score (8-mer binding enrichment) (E-score (-0.5 to 0.5)); higher = stronger / more preferred TF binding; most listed sequences are background and not binding sites
Conditions: protein concentration: 200 nM; construct: GST-full length
Summary of the method: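 Using PURExpress in vitro transcription/translation, GST-tagged yeast transcription factors were made in full-length or DNA-binding-domain form. These were applied at about 100-200 nM to double-stranded universal all-10-mer Agilent arrays, and bound protein was detected with fluorescent anti-GST. Scans were normalised with masliner before the Universal PBM Analysis Suite assigned E-scores to ungapped eight-base words pooled with their reverse complements.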

Row | Sequence | PBM E-score
1 | ACCCTGTG | 0.0661
2 | CCCGGTTA | -0.24
3 | CGAACTCA | 0.0509
4 | GCACGACA | -0.0845
5 | TCGAGAGA | -0.169
6 | ACGGAATC | 0.0679
7 | AAAAGTCG | -0.0881
8 | GTGATTAA | 0.248
9 | GATTCTAC | 0.16
10 | CTACCTAG | -0.186
11 | AAGGTAAT | 0.146
12 | CGAGGGAC | -0.207
13 | AACTGGCG | 0.132
14 | AATATTTC | -0.0551
15 | AGTTTGCG | 0.152
16 | TAGGAGCA | -0.0685
17 | CTGCCCTA | -0.101
18 | AAGAATGG | -0.12
19 | CGATCGTA | 0.0235
20 | GATGTCGA | 0.00412
21 | CTAAGCCC | -0.244
22 | AGATTAGC | -0.166

Row | Sequence | PBM E-score
23 | GTGCAGAA | -0.249
24 | AGAGACAG | -0.0107
25 | GAGTCCTA | 0.185
26 | ATAGGGTA | 0.15
27 | AACTCCAC | -0.033
28 | AAGGTCAA | -0.0699
29 | GCAGAGCA | -0.0587
30 | CTTGCGAC | -0.144
31 | ATTTGGAA | -0.12
32 | TAATTCCA | 0.00948
33 | CTAGGATC | -0.148
34 | GACCAGGC | -0.0346
35 | ACGCTTAT | -0.167
36 | CGGCGATC | 0.161
37 | CCGGCAGA | -0.238
38 | GCGCCGGA | -0.0486
39 | GCTTAACA | -0.117
40 | CGGCCCCA | -0.256
41 | ATCGAGCC | -0.0957
42 | TCGGTGCA | 0.0154
43 | CTCACATA | 0.186
44 | TAGTGGAA | -0.242

Row | Sequence | PBM E-score
45 | TGAAGGCA | -0.196
46 | CATGCATA | 0.0152
47 | CTTTAGTA | -0.1
48 | AGCTGTGA | 0.0331
49 | AAGTACTC | 0.0478
50 | CAATAGTA | 0.0779
51 | AAATCCAG | -0.0628
52 | GTTCGTAA | -0.00434
53 | GTTGTCCA | 0.0188
54 | AGAATGAT | 0.215
55 | AAAGCATT | -0.158
56 | CCATGCAA | 0.033
57 | GCGACTAC | 0.341
58 | ACAACTCC | 0.0431
59 | ACTGGCTG | 0.0954
60 | GGGGGACC | -0.0584
61 | CGATCTAA | 0.0349
62 | AACCCAGT | 0.116
63 | AAGGTGTA | -0.119
64 | CACTGCCA | 0.124
65 | ATCCGGGG | 0.223
66 | AATTAACA | 0.0375

Row | Sequence | PBM E-score
67 | TGGCGACA | 0.1
68 | TAAAACTA | -0.102
69 | AGAAGTTC | -0.247
70 | CTATACGC | 0.152
71 | CTGCTTCC | -0.275
72 | ATAATGGC | 0.0598
73 | GTCGAAAA | -0.187
74 | AATGCTCC | -0.208
75 | AGCCTGGG | 0.0474
76 | CAACCTAG | 0.0465
77 | CAGTCCCA | 0.0293
78 | AAGGGAAG | 0.0285
79 | CTTGGTCC | -0.0873
80 | CACAACAG | 0.0574
81 | AGAATACG | -0.12
82 | GAACACAC | 0.191
83 | CAGCAGGA | 0.161
84 | AACCGGGA | 0.00811
85 | AAAGGTTC | -0.229
86 | TCAGTGCA | 0.0754
